# Measurements as given in article PMC4336329 (PLoS ONE, 2015).
# About 14,000 (4.5%) of roughly 310,000 compounds showed an effect of 50% or more. Effects have a minus sign here. The list shows a part of the results.
# Target: human ether-à-go-go-related gene (hERG) potassium channel (human, UniProt Q12809)
# Experiment: primary screen, population patch clamp on CHO cells stably expressing hERG
# 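Also: peak tail current of the secondary pulse compared with the same well before compound.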
# Chain of human ether-à-go-go-related gene (hERG) potassium channel (Q12809 whole entry, looked up): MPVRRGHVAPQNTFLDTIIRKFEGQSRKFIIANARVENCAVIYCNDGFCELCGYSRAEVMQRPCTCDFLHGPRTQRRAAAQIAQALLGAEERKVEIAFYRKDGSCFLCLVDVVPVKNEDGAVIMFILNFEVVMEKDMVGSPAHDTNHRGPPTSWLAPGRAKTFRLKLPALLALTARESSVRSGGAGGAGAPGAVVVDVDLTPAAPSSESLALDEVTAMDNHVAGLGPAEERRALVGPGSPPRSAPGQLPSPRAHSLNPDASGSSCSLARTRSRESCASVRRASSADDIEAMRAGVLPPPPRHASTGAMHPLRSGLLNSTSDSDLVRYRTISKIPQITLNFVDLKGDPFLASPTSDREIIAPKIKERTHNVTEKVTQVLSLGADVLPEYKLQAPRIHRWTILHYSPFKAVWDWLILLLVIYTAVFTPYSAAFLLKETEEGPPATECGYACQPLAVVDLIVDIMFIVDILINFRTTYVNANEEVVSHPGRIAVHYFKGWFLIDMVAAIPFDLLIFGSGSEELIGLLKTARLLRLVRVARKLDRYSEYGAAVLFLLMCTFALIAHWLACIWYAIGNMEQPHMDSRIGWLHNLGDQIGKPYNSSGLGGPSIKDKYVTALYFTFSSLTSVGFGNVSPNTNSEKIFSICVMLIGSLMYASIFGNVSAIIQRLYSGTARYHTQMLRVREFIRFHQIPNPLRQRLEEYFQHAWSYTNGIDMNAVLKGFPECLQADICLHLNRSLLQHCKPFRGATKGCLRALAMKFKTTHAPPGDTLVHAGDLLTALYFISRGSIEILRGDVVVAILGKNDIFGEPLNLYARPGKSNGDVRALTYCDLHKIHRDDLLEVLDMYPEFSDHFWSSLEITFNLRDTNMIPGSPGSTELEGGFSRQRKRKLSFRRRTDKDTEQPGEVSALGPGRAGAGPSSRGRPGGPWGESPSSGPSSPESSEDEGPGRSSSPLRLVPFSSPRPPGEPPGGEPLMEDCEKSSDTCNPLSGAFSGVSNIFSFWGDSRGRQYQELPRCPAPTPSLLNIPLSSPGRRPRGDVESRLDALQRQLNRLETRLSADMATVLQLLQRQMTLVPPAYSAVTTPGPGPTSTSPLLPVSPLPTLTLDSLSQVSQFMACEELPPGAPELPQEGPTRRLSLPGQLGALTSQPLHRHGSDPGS
row,Compound,"hERG current change (%, negative = inhibition) at 10uM [%]"
1,COc1ccc(C(=O)Nc2nc3ccccc3c(=O)[nH]2)cc1,2.8
2,CCOc1ccc(N(CC(=O)N2CCOCC2)S(=O)(=O)c2ccc(Cl)cc2)cc1,-36.6
3,CCOC(=O)c1ccc(COC(=O)CNC(=O)CNC(=O)c2ccc(OC)cc2)o1,9.35
4,COc1ccc(N2CCc3c(C)nc4c(OC)cccc4c32)cc1,-73.5
5,COc1ccc(N=Cc2c(C)[nH][nH]c2=O)cc1,7.25
6,CCCCN(C(=O)CSc1c(C)c(C)cc(C)c1C)c1c(N)n(CCC)c(=O)[nH]c1=O,13
7,CC1=C(C(=O)Nc2ccccc2F)C(c2cccs2)C2=C(CCCC2=O)N1 (stereo not drawn),6.93
8,O=C(NCCNC1CCCCC1)c1ccco1,8.45
9,CC12CCC3C(CC=C4CC(O)CCC43C)C1C/C(=C\c1cccc(F)c1)C2=O (stereo not drawn),7.89
10,COc1ccccc1OCC(=O)NCC1CCCN(C(=O)c2ccccc2SC)C1 (stereo not drawn),0.932
11,O=C(N/N=C\c1cc(Br)c(Br)o1)c1cncc(Br)c1,7.62
12,Cc1ccc(S(=O)(=O)NCCC(=O)NCC(c2ccco2)N2CCCCC2)cc1C (stereo not drawn),-45.3
13,Cc1c(/C=N\NC(=O)c2ccc(F)cc2)cnn1C,10.9
14,CCOC(=O)Cc1csc(NC(=O)COc2ccc3ccccc3c2)n1,-30.5
15,Cn1nc(C(=O)N2CCN(c3ccccc3)CC2)c2c1-c1ccccc1S(=O)(=O)C2,-40.9
16,COc1ccc(CNC(=O)CCS(=O)(=O)c2ccc3c(c2)oc(=O)n3C)cc1,5.82
17,CCOC(=O)C1CCN(CCCSc2ccc(Cl)cc2)CC1.Cl,-72.7
18,O=C(O)CC1(c2ccc(F)cc2)C2CC3CC(C2)CC1C3 (stereo not drawn),22.3
19,CCc1c(C)c2ccc(OCC(=O)NCC3CCC(C(=O)O)CC3)c(C)c2oc1=O (stereo not drawn),18
20,CCCOc1ccc(N2C(=O)CC(NCC#N)C2=O)cc1 (stereo not drawn),2.57
21,Cc1csc2c(N3CCN(C(=S)Nc4ccc(F)cc4F)CC3)ncnc12,-26.8
22,COc1ccc(CNc2cccc3[nH]c(C(F)(F)F)nc23)cc1OC.Cl,8.88
23,COc1ccccc1CN1C(=O)[C@H]2Cc3c([nH]c4ccccc34)C(C)(C)N2C1=O,4.05
24,COc1ccc(OC)c(NC(=O)c2ccc3nc(-c4ccccc4)c(-c4ccccc4)nc3c2)c1,32.6
